Test results reported in PubChem BioAssay AID651815 (National Center for Advancing Translational Sciences (NCATS), 2012).
Out of some 2,100 compounds screened, about 1,100 (52%) were called active. So high a share suggests a set chosen from earlier hits. Inconclusive results, whose numbers are uncertain, are shown with a selection of clear calls. Calls follow the shape of the dose curve; as a rule, active = well fitted inhibition curve with a large enough effect; inconclusive = small, poorly fitted or top-dose-only effect; inactive = no such curve, though single readings can be large or run the other way. No potency is given beside an inconclusive call; the fits are too rough.

The molecules below were run against DNA dC->dU-editing enzyme APOBEC-3F (Homo sapiens) (UniProt Q8IUX4) (assay: qHTS for inhibitors of Vif-A3F interactions: Cherry picks counterscreen). Conditions: HeLa A3F-eYFP/Vif cells, eYFP fluorescence, 24 h; series mostly up to 46.1 µM.
Method in brief: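 Rescue of Vif-driven A3F-eYFP degradation read as cellular eYFP fluorescence after 24 h compound exposure (several concentrations) in stable HeLa cells; MG132 (2 mM stock) as positive control.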
Also: nearly all actives have a fitted effect of over 65% in size.
Potency is read from the fitted curve at half-maximal effect; tags tell the direction and shape of the fitted curve.

Sequence of UniProt Q8IUX4 (Q8IUX4 whole entry, looked up): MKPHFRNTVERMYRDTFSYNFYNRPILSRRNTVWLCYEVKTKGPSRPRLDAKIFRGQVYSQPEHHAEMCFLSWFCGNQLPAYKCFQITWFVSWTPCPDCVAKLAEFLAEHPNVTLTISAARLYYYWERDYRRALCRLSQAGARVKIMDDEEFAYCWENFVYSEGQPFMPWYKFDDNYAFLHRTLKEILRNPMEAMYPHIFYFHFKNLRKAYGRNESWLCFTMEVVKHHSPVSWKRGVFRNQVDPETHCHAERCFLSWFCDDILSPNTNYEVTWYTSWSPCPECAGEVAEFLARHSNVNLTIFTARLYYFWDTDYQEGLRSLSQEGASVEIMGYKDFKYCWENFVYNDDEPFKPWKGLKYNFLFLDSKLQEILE

| Compound | Potency |
| --- | --- |
| CCOc1ccc(Br)cc1C1C(C(=O)OC)=C(N)Oc2cc(N(C)C)ccc21 (configuration not stated) | inconclusive [inhibitor, full curve] |
| CCN(CC)c1ccc(/C=C/C(=O)c2ccc(Br)cc2)cc1 | inconclusive [inhibitor, single point] |
| O=C(Nc1nnc(-c2ccc3c(c2)CCCC3)o1)c1c(F)cccc1F | inactive |
| CCN(CC(=O)NCc1ccc(F)cc1)C(=O)/C=C/c1ccc(OC)c(S(=O)(=O)NC(C)C)c1 | active: 4.98 µM |
| O=S(=O)(Nc1cc2nc3ccccc3nc2n1Cc1ccccc1)c1ccc(Cl)cc1 | inconclusive [inhibitor, single point] |
| Cc1cc(C)c(S(=O)(=O)N2CCCCC2CCNC(=O)C(=O)NCc2ccco2)c(C)c1 (configuration not stated) | inconclusive [inhibitor, single point] |
| c1ccc(C2CNCc3c2ccc2ccccc32)cc1 (configuration not stated) | inconclusive [inhibitor, partial curve] |
| CCN(CC(=O)Nc1ccccc1-c1ccccc1)Cc1nc2ccccc2c(=O)[nH]1 | inconclusive [inhibitor, partial curve] |
| CCCCOc1ccc2c(c1)/C(=C(\C(Cl)=C(Cl)Cl)[N+](=O)[O-])N2 | inactive |
| COc1cccc(C2=CC(c3cc(OC)ccc3OC)n3nnnc3N2)c1 (configuration not stated) | inconclusive [inhibitor, full curve] |
| COc1cccc(N=C2NC(=O)/C(=C/c3cc([N+](=O)[O-])ccc3O)S2)c1 | inactive |
| COc1cccc(Nc2ncccc2C(=O)NCc2ccccc2)c1 | inconclusive [inhibitor, single point] |
| CCOC(=O)N1CCN(C(=O)c2[nH]c(C(F)(F)F)nc2-c2ccccc2)CC1 | inconclusive [inhibitor, single point] |
| CCOC(=O)Cc1ccc(Nc2nc3cc(-c4sccc4C)sc3c(=O)n2C)cc1 | active: 3.96 µM |
| COC(=O)c1cc(NC(=O)c2ccccc2)c(=O)oc1/C=C/Nc1ccc(Oc2ccccc2)cc1 | inconclusive [inhibitor, full curve, poor fit] |
| CCOC(=O)c1c(-c2ccc(OC)cc2)csc1/N=C/C1=C(O)CCCC1=O | inactive |
| CCc1nnc(NC(=O)CSc2nnc(-c3ccccc3O)n2-c2ccc(C)cc2C)s1 | inconclusive [inhibitor, partial curve] |
| COc1ccc(-c2n[nH]c3c2CN(C(=O)c2ccc(OC)c(OC)c2)CC3)cc1 | active: 4.44 µM |
| CC(=O)c1ccc(-c2ccc(C(=O)Nc3nc(-c4ccccn4)cs3)o2)cc1 | inconclusive [inhibitor, single point] |
| CSc1cccc(NC(=O)c2cc3c(COC(C)=O)cnc(C)c3oc2=O)c1 | inactive |
| CCCCCCNc1ccc(/C=C/c2ccnc3ccccc23)cc1 | inconclusive [inhibitor, single point] |
| CCC(C)Sc1ccc(-c2nc3cc(C)ccn3c2NC2CCCCC2)cc1 (configuration not stated) | inactive |
| COc1ccc(CN=Cc2[nH]c3ccc(Br)c(Cl)c3c2O)cc1 | inconclusive [inhibitor, single point] |
| N#C/C(=C\c1ccc(C(=O)O)cc1)c1nc2sc3c(c2c(=O)[nH]1)CCCC3 | inactive |

| Compound | Potency |
| --- | --- |
| COc1ccc(OC)c(C2C=C(c3ccc(C)c(C)c3)Nc3nnnn32)c1 (configuration not stated) | active: 4.98 µM |
| CC1Sc2ccc(C(=O)NCc3ccccn3)cc2NC1=O (configuration not stated) | inactive |
| COc1ccc2nc(SCC(C)=O)c(C#N)cc2c1 | inconclusive [inhibitor, full curve] |
| CCCCN(C)CC(O)Cn1cc(/C=C/C(=O)c2cccs2)c2ccccc21 (configuration not stated) | inconclusive [inhibitor, single point] |
| N#C/C(=C\c1ccc(N2CCCCC2)o1)C(N)=O | inconclusive [inhibitor, single point] |
| O=C(COC(=O)c1ccc(NS(=O)(=O)c2cccs2)cc1)NCc1ccco1 | inconclusive [inhibitor, single point] |
| CCCC1=[N+](CC(=O)c2ccc(Br)cc2)CCn2cccc21 | inactive |
| CCn1c(O)c(/C=N/N=C/c2ccc(OC)cc2)c2cc(C3=NNC(=O)CC3)ccc21 | active: 6.51 µM |
| CC(C)CCNC(=O)c1ccc2c(c1)NC(=O)C(CS(=O)(=O)Cc1cccc(Br)c1)N2 (configuration not stated) | inactive |
| Cc1cccc(C=Nc2ccccc2C(N)=O)c1 | inconclusive [inhibitor, partial curve] |
| CCOC(=O)c1c(CN(CC)CC)n(-c2ccccc2)c2ccc(O)cc12 | inactive |
| CC(C)(C)C(=O)Nc1sc2c(c1C#N)CCN(Cc1ccccc1)C2 | inconclusive [inhibitor, partial curve, poor fit] |
| C/C(=N/NC(N)=S)c1ccc(Br)s1 | inactive |
| CCOc1ccccc1OCC(=O)N/N=C(\C)Cc1ccc(OC)cc1 | inconclusive [inhibitor, single point] |
| COc1ccccc1N1C(=O)c2cccc3c(C(=O)O)ccc(c23)C1=O | inactive |
| CC(C)n1cnc2c(NCc3ccccc3)cc(N[C@H](C)CO)cc21 | active: 14 µM |
| O=Nc1ccc(O)c2ncccc12 | inactive |
| COc1ccc(S(=O)(=O)N2CCCOC2CNC(=O)C(=O)NCCc2ccco2)cc1C (configuration not stated) | inconclusive [inhibitor, partial curve, poor fit] |
| CCOC(=O)c1ccc(NC(=S)Nc2cccc(C)n2)cc1 | inactive |
| CCN(CC)c1ccc(NC(=O)c2cccc(F)c2)c(C)c1 | inconclusive [inhibitor, full curve] |
| COc1ccc(OC)c(NS(=O)(=O)c2ccc(Cl)s2)c1 | active: 11.2 µM |
| Cc1ccc(NC(=O)Cc2ccc(-n3cccc3)cc2)c(C)c1 | inactive |
| COc1cc(/C=C2\COC/C(=C\c3cc(OC)c(OC)c(OC)c3)C2=O)cc(OC)c1OC | inconclusive [inhibitor, full curve] |
| NC(=O)c1ccc(Cn2c(C(=O)c3cc(Cl)c(N)c(Cl)c3)c3ccccc3[n+]2[O-])cc1 | inconclusive [inhibitor, single point] |

| Compound | Potency |
| --- | --- |
| CC(C)c1cccc(-c2ccc3c(c2)S(=O)(=O)c2cccc(C(=O)NCc4ccccc4)c2C3=O)c1 | inconclusive [inhibitor, partial curve, poor fit] |
| CCCC(=O)NC1=C(Cl)C(=O)c2ccccc2C1=O | inactive |
| O=C(O)CCCNc1cc(N2CCN(C(=O)c3ccco3)CC2)c2noc3c2c1C(=O)c1ccccc1-3 | inconclusive [inhibitor, single point] |
| Clc1ccccc1Cn1c(/C=C/c2ccco2)nc2ccccc21 | inconclusive [inhibitor, single point] |
| O=C(/C(=C/c1ccc(Cl)cc1)c1nc2ccccc2[nH]1)c1cccs1 | inconclusive [inhibitor, single point] |
| COc1cc(C=C2CCCC(=Cc3ccc(OCC4CO4)c(OC)c3)C2=O)ccc1OCC1CO1 (configuration not stated) | inconclusive [inhibitor, single point] |
| CN(C)CCN(C(=O)/C=C/c1cccs1)c1nc2c(F)cc(F)cc2s1 | inconclusive [inhibitor, single point] |
| C=CCN1C(=O)C2(NNc3ccccc3O2)c2ccccc21 (configuration not stated) | inconclusive [inhibitor, single point] |
| CSc1nsc(/C=C/Nc2ccc(Cl)cc2)c1C#N | inconclusive [inhibitor, partial curve] |
| C[N+](C)(C)CCC(=O)N1C/C(=C/c2ccccc2)C(=O)/C(=C\c2ccccc2)C1 | inconclusive [inhibitor, single point] |
| O=[N+]([O-])c1ccc(Oc2cccc3cccnc23)c([N+](=O)[O-])c1 | active: 14 µM |
| c1ccc2c(CCc3c[nH]c4ccccc34)ccnc2c1 | inconclusive [inhibitor, single point] |
| CN(C)c1ccc(/C=C/c2ccnc3ccccc23)c(N)c1 | active: 8.2 µM |
| Cc1ccc(-c2nc(SCCOc3ccccc3C)n3[nH]c(=O)cc3n2)cc1 | inactive |
| S=C(NCCSCc1ccc(Cl)cc1)Nc1ccccc1 | inactive |
| Cc1noc(C)c1COc1cccc(C(=O)OC(C)C(=O)Nc2ccc3c(c2)OCO3)c1 (configuration not stated) | inconclusive [inhibitor, full curve] |
| COc1cc(Cl)c(C)cc1NC(=O)CN1CCN(C(=O)C2CC2)CC1 | inconclusive [inhibitor, single point] |
| O=C(c1cc([N+](=O)[O-])ccc1N1CCCCC1)N1CCc2ccccc21 | inconclusive [inhibitor, full curve] |
| CC(C)(C)n1ncc2c(=O)n(CC(=O)NCc3ccc(F)cc3)cnc21 | active: 14 µM |
| COc1cc(OC)c(C2Nc3cccc4cccc(c34)N2)c(OC)c1 | inactive |
| COc1ccccc1NC(=O)c1oc2ccccc2c1NC(=O)c1cccc(OC)c1OC | inconclusive [inhibitor, full curve] |
| COc1ccc(NC(=O)c2sc3nc(-c4cccnc4)ccc3c2N)cc1OC | active: 5.8 µM |
| O=C(NCc1ccccc1C(F)(F)F)c1cccc2c1C(=O)c1ccc(N3CCC(N4CCCCC4)CC3)cc1S2(=O)=O | inconclusive [inhibitor, single point] |
| COC(=O)c1ccccc1NC(=O)C1CC(=O)N(c2ccc(OC)cc2)C1 (configuration not stated) | inconclusive [inhibitor, partial curve] |
